Measurements published in the supplement of paper PMC8728848.
Some of the results follow.

Key:
Experiment in all cases: glycan array binding signal (z-score within array); higher = stronger binding
Conditions in all cases: glycan notation: IUPAC condensed, linker removed
[1] = target: Gal(b1-3)Gal
Method in brief: (§1)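 Negative Z-scores can be read as non-binding. The Z-score is calculated within each array and then averaged across arrays of one protein sequence at different concentrations or buffers and across linkers. Arrays, 3228 in all, were curated from the Consortium for Functional Glycomics database and kept only where the protein sequence was available.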

[2] = target: Gal(b1-3)Gal(b1-4)GlcNAc
Method in brief: as §1

[3] = target: Gal(b1-3)GalNAc
Method in brief: as §1

[4] = target: Gal(b1-3)GalNAc(a1-3)[Fuc(a1-2)]Gal(b1-4)Glc
Method in brief: as §1

[5] = target: Gal(b1-3)GalNAc(a1-3)[Fuc(a1-2)]Gal(b1-4)GlcNAc
Method in brief: as §1

[6] = target: Gal(b1-3)GalNAc(b1-3)Gal
Method in brief: as §1

[7] = target: Gal(b1-3)GalNAc(b1-3)Gal(a1-4)Gal(b1-4)Glc
Method in brief: as §1

[8] = target: Gal(b1-3)GalNAc(b1-4)Gal(b1-4)Glc
Method in brief: as §1

[9] = target: Gal(b1-3)GalNAc(b1-4)[Neu5Ac(a2-3)]Gal(b1-4)Glc
Method in brief: as §1

[10] = target: Gal(b1-3)GlcNAc
Method in brief: as §1

[11] = target: Gal(b1-3)GlcNAc(a1-3)Gal(b1-4)GlcNAc
Method in brief: as §1

[12] = target: Gal(b1-3)GlcNAc(a1-6)Gal(b1-4)GlcNAc
Method in brief: as §1

[13] = target: Gal(b1-3)GlcNAc(b1-2)Man
Method in brief: as §1

[14] = target: Gal(b1-3)GlcNAc(b1-2)Man(a1-3)[Gal(b1-3)GlcNAc(b1-2)Man(a1-6)]Man(b1-4)GlcNAc(b1-4)GlcNAc
Method in brief: as §1

[15] = target: Gal(b1-3)GlcNAc(b1-2)Man(a1-3)[Gal(b1-3)GlcNAc(b1-2)Man(a1-6)]Man(b1-4)GlcNAc(b1-4)[Fuc(a1-6)]GlcNAc
Method in brief: as §1

[16] = target: Gal(b1-3)GlcNAc(b1-2)Man(a1-3)[GlcNAc(b1-4)][Gal(b1-3)GlcNAc(b1-2)Man(a1-6)]Man(b1-4)GlcNAc(b1-4)GlcNAc
Method in brief: as §1

[17] = target: Gal(b1-3)GlcNAc(b1-2)[Gal(b1-3)GlcNAc(b1-6)]Man(a1-6)[Gal(b1-3)GlcNAc(b1-2)Man(a1-3)]Man(b1-4)GlcNAc(b1-4)GlcNAc
Method in brief: as §1

[18] = target: Gal(b1-3)GlcNAc(b1-3)Gal(b1-3)GlcNAc
Method in brief: as §1

[19] = target: Gal(b1-3)GlcNAc(b1-3)Gal(b1-4)Glc
Method in brief: as §1

[20] = target: Gal(b1-3)GlcNAc(b1-3)Gal(b1-4)GlcNAc
Method in brief: as §1

[21] = target: Gal(b1-3)GlcNAc(b1-3)Gal(b1-4)GlcNAc(b1-2)Man(a1-3)[Gal(b1-3)GlcNAc(b1-3)Gal(b1-4)GlcNAc(b1-2)Man(a1-6)]Man(b1-4)GlcNAc(b1-4)GlcNAc
Method in brief: as §1

[22] = target: Gal(b1-3)GlcNAc(b1-3)Gal(b1-4)GlcNAc(b1-2)[Gal(b1-3)GlcNAc(b1-3)Gal(b1-4)GlcNAc(b1-6)]Man(a1-6)[Gal(b1-3)GlcNAc(b1-3)Gal(b1-4)GlcNAc(b1-2)Man(a1-3)]Man(b1-4)GlcNAc(b1-4)[Fuc(a1-6)]GlcNAc
Method in brief: as §1

[23] = target: Gal(b1-3)GlcNAc(b1-3)Gal(b1-4)GlcNAc(b1-3)Gal(b1-4)GlcNAc(b1-2)[Gal(b1-3)GlcNAc(b1-3)Gal(b1-4)GlcNAc(b1-3)Gal(b1-4)GlcNAc(b1-6)]Man(a1-6)[Gal(b1-3)GlcNAc(b1-3)Gal(b1-4)GlcNAc(b1-3)Gal(b1-4)GlcNAc(b1-2)Man(a1-3)]Man(b1-4)GlcNAc(b1-4)[Fuc(a1-6)]GlcNAc
Method in brief: as §1

[24] = target: Gal(b1-3)GlcNAc(b1-3)Gal(b1-4)GlcNAc(b1-6)[Gal(b1-3)GlcNAc(b1-3)]Gal(b1-4)Glc
Method in brief: as §1

[25] = target: Gal(b1-3)GlcNAc(b1-3)Gal(b1-4)[Fuc(a1-3)]GlcNAc
Method in brief: as §1

[26] = target: Gal(b1-3)GlcNAc(b1-3)Gal(b1-4)[Fuc(a1-3)]GlcNAc(b1-6)[Gal(b1-3)GlcNAc(b1-3)]Gal(b1-4)Glc
Method in brief: as §1

[27] = target: Gal(b1-3)GlcNAc(b1-3)GalNAc
Method in brief: as §1

[28] = target: Gal(b1-3)GlcNAc(b1-6)Gal(b1-4)GlcNAc
Method in brief: as §1

[29] = target: Gal(b1-3)GlcNAc(b1-6)GalNAc
Method in brief: as §1

[30] = target: Gal(b1-3)GlcNAc(b1-6)[Gal(b1-3)]GalNAc
Method in brief: as §1

[31] = target: Gal(b1-3)GlcNAc6S
Method in brief: as §1

[32] = target: Gal(b1-3)[Fuc(a1-4)]GlcNAc
Method in brief: as §1

[33] = target: Gal(b1-3)[Fuc(a1-4)]GlcNAc(b1-2)Man
Method in brief: as §1

[34] = target: Gal(b1-3)[Fuc(a1-4)]GlcNAc(b1-2)Man(a1-3)[Gal(b1-3)[Fuc(a1-4)]GlcNAc(b1-2)Man(a1-6)]Man(b1-4)GlcNAc(b1-4)[Fuc(a1-6)]GlcNAc
Method in brief: as §1

[35] = target: Gal(b1-3)[Fuc(a1-4)]GlcNAc(b1-3)Gal(b1-3)[Fuc(a1-4)]GlcNAc
Method in brief: as §1

[36] = target: Gal(b1-3)[Fuc(a1-4)]GlcNAc(b1-3)Gal(b1-4)[Fuc(a1-3)]GlcNAc
Method in brief: as §1

[37] = target: Gal(b1-3)[Fuc(a1-4)]GlcNAc(b1-6)GalNAc
Method in brief: as §1

B1: CPA (Cicer arietinum) (protein)
chain: MAFSYLNLVLVTLTTLFFLQTTKVKSQKSVSFHITNFTISRPSITLQGTAEFLPNVLLLNDIEHPVFVVGRALYSKPITLWNNKTGKVASFVTSFTFDVQDLKKTVPGHGLVFFLAPSGSEIPFSSDGGNLGVVDGKNAFNRFVGVEFDNFVNSWDPKYSHVGINVNSLISTKTVKWNRVSGELVKVSIVYDSVSTTLTVIVTYKNGQISILSQLVDLKAVLPDTVNIGFSASTTLVSPRQLHNIHSWSFTSTFET
glycan array binding signal (z-score) [1]: -0.314 | glycan array binding signal (z-score) [2]: -0.367 | glycan array binding signal (z-score) [3]: -0.456 | glycan array binding signal (z-score) [4]: -0.568 | glycan array binding signal (z-score) [5]: -0.368 | glycan array binding signal (z-score) [6]: 2.92 | glycan array binding signal (z-score) [7]: -0.436 | glycan array binding signal (z-score) [8]: -0.151 | glycan array binding signal (z-score) [9]: -0.46 | glycan array binding signal (z-score) [10]: 0.157 | glycan array binding signal (z-score) [11]: -0.462 | glycan array binding signal (z-score) [12]: -0.701 | glycan array binding signal (z-score) [13]: 0.192 | glycan array binding signal (z-score) [14]: 1.19 | glycan array binding signal (z-score) [15]: -0.606 | glycan array binding signal (z-score) [16]: 1.87 | glycan array binding signal (z-score) [17]: -0.14 | glycan array binding signal (z-score) [18]: 0.038 | glycan array binding signal (z-score) [19]: -0.7 | glycan array binding signal (z-score) [20]: -0.695 | glycan array binding signal (z-score) [21]: -0.238 | glycan array binding signal (z-score) [22]: 1.68 | glycan array binding signal (z-score) [23]: 3.59 | glycan array binding signal (z-score) [24]: -0.028 | glycan array binding signal (z-score) [25]: -0.617 | glycan array binding signal (z-score) [26]: -0.558 | glycan array binding signal (z-score) [27]: 0.028 | glycan array binding signal (z-score) [28]: -0.751 | glycan array binding signal (z-score) [29]: -0.396 | glycan array binding signal (z-score) [30]: -0.185 | glycan array binding signal (z-score) [31]: -0.419 | glycan array binding signal (z-score) [32]: -0.282 | glycan array binding signal (z-score) [33]: 0.564 | glycan array binding signal (z-score) [34]: 0.518 | glycan array binding signal (z-score) [35]: -0.701 | glycan array binding signal (z-score) [36]: -0.459 | glycan array binding signal (z-score) [37]: -0.13
